In test [1] the target is GST-SPOP (pGEX-4T-1-SPOP) (human) (UniProt O43791). The experiment in a line: pull-down; GST pull-down from lysates of 293T cells transfected with HDAC6 constructs, treated with 10 μM MG132 for 12 hours; by the methods 1 mg lysate with 1 μg bacterial purified GST fused protein for 4 hours in the cold room, washed with NETN buffer; immunoblot; only the target purified. Background: A western blot detects proteins with antibodies after separation by electrophoresis.

The chains behind the UniProt entries cited, without tags or fusion partners. Where a name states a change or a piece, a line headed by the entry shows the natural chain unless it says otherwise. A line that says so, or that is headed by a name, gives the form on record, which may keep a tag or linker.
UniProt O43791: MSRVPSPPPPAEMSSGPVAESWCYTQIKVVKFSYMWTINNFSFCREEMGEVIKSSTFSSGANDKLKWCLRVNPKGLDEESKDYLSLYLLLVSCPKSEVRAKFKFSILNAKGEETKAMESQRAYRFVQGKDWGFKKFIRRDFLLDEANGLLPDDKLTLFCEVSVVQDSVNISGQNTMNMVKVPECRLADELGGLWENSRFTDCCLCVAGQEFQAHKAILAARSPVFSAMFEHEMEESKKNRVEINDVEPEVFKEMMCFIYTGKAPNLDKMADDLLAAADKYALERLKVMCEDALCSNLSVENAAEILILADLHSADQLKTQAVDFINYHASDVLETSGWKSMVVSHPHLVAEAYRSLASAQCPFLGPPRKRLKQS
UniProt Q9UBN7: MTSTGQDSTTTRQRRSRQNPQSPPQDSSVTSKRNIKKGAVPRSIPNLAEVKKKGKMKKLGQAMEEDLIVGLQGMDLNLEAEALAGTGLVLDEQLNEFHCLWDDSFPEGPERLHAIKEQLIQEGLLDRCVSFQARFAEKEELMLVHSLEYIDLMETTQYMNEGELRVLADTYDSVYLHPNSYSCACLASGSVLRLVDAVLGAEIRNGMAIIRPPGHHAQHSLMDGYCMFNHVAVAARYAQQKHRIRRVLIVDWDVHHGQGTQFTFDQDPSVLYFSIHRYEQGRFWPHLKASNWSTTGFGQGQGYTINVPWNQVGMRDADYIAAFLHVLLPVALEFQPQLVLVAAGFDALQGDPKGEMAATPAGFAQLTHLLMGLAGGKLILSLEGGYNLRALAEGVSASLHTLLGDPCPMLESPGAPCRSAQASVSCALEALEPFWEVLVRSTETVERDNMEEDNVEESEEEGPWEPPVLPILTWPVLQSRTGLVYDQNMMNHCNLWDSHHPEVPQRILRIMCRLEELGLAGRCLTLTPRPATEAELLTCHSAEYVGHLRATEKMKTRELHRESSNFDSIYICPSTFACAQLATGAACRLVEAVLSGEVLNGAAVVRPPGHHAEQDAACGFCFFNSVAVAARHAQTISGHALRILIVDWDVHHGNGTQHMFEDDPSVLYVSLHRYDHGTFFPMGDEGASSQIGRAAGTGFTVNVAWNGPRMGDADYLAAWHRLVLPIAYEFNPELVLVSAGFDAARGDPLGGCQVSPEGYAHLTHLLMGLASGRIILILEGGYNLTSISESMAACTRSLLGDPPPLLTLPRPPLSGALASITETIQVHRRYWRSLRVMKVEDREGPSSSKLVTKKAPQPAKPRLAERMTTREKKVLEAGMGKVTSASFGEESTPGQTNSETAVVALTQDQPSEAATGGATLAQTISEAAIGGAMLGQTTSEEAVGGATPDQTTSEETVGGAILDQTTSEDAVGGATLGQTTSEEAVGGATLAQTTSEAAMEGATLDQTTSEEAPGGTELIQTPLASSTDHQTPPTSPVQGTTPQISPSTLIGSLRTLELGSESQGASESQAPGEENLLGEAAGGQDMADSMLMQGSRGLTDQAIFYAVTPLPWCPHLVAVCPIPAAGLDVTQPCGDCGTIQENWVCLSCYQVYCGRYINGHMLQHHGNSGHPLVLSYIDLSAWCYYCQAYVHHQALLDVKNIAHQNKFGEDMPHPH
HDAC6 with deletion of degron 1 (ΔD1) (Q9UBN7, form named): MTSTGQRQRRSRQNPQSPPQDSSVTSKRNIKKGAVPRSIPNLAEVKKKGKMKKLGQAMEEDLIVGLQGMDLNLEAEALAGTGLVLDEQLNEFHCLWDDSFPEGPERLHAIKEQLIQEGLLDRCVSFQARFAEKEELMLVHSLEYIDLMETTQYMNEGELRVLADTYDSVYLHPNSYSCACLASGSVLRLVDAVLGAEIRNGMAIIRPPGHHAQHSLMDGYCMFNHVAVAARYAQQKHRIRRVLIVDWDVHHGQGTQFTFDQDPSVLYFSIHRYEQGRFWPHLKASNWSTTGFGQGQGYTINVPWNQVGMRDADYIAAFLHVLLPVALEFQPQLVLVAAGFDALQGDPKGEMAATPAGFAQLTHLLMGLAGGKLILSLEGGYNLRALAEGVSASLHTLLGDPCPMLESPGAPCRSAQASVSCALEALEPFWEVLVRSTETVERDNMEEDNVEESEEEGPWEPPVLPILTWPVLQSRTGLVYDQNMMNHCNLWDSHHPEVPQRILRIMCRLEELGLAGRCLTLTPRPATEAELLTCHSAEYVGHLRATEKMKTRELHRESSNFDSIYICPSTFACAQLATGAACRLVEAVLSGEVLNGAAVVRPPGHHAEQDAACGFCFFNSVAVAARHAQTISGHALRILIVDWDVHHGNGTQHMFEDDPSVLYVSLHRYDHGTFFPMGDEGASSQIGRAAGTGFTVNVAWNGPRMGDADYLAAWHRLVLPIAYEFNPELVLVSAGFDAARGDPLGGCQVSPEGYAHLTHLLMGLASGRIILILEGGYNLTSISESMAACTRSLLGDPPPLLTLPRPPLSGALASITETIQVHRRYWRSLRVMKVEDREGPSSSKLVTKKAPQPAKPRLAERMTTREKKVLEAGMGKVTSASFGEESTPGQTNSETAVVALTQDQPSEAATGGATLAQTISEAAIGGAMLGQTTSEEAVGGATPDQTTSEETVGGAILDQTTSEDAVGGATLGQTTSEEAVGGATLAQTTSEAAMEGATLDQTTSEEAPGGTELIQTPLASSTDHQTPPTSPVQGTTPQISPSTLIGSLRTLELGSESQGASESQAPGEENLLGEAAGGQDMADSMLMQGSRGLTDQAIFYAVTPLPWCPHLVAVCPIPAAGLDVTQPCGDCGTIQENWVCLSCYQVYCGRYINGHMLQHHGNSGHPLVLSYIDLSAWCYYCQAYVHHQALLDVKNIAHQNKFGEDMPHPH
UniProt Q13619: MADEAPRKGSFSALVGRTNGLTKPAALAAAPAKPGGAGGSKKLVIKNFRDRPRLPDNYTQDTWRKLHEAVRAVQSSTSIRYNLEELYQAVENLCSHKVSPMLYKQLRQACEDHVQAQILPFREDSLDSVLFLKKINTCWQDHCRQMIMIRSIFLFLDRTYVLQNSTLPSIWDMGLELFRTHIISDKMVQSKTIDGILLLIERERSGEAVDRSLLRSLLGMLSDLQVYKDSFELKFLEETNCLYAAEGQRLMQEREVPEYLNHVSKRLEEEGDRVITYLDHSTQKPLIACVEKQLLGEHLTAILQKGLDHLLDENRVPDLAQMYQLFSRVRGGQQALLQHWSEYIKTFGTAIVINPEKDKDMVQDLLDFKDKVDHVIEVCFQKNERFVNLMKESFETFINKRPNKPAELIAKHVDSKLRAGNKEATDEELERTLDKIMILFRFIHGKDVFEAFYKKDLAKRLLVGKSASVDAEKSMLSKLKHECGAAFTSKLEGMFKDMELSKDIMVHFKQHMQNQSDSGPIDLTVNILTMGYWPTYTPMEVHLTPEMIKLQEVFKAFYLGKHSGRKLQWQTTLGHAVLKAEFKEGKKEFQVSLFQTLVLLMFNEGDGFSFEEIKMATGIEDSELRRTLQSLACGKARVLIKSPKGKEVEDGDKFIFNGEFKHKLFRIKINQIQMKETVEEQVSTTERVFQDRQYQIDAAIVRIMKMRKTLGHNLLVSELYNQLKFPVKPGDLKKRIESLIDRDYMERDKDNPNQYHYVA
UniProt Q93034: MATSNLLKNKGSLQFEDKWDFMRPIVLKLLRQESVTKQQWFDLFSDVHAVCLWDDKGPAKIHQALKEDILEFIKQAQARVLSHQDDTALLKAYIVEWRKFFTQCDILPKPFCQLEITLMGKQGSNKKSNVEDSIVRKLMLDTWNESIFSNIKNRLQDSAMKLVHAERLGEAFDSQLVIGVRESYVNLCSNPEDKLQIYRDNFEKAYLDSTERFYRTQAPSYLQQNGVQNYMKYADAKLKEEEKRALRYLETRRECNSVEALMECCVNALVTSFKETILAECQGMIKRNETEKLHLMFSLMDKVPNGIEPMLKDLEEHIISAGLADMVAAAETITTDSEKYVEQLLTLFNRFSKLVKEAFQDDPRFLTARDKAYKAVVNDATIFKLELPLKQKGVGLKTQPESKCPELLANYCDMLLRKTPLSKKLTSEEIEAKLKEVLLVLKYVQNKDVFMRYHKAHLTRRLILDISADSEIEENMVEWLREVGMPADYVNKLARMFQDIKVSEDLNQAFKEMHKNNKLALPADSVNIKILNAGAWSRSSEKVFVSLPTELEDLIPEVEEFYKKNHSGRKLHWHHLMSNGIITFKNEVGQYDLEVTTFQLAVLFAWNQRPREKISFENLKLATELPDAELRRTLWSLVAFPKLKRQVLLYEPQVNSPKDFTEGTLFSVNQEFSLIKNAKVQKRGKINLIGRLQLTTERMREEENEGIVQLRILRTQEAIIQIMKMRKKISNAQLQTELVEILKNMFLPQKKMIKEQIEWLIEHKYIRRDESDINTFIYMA
UniProt Q14999: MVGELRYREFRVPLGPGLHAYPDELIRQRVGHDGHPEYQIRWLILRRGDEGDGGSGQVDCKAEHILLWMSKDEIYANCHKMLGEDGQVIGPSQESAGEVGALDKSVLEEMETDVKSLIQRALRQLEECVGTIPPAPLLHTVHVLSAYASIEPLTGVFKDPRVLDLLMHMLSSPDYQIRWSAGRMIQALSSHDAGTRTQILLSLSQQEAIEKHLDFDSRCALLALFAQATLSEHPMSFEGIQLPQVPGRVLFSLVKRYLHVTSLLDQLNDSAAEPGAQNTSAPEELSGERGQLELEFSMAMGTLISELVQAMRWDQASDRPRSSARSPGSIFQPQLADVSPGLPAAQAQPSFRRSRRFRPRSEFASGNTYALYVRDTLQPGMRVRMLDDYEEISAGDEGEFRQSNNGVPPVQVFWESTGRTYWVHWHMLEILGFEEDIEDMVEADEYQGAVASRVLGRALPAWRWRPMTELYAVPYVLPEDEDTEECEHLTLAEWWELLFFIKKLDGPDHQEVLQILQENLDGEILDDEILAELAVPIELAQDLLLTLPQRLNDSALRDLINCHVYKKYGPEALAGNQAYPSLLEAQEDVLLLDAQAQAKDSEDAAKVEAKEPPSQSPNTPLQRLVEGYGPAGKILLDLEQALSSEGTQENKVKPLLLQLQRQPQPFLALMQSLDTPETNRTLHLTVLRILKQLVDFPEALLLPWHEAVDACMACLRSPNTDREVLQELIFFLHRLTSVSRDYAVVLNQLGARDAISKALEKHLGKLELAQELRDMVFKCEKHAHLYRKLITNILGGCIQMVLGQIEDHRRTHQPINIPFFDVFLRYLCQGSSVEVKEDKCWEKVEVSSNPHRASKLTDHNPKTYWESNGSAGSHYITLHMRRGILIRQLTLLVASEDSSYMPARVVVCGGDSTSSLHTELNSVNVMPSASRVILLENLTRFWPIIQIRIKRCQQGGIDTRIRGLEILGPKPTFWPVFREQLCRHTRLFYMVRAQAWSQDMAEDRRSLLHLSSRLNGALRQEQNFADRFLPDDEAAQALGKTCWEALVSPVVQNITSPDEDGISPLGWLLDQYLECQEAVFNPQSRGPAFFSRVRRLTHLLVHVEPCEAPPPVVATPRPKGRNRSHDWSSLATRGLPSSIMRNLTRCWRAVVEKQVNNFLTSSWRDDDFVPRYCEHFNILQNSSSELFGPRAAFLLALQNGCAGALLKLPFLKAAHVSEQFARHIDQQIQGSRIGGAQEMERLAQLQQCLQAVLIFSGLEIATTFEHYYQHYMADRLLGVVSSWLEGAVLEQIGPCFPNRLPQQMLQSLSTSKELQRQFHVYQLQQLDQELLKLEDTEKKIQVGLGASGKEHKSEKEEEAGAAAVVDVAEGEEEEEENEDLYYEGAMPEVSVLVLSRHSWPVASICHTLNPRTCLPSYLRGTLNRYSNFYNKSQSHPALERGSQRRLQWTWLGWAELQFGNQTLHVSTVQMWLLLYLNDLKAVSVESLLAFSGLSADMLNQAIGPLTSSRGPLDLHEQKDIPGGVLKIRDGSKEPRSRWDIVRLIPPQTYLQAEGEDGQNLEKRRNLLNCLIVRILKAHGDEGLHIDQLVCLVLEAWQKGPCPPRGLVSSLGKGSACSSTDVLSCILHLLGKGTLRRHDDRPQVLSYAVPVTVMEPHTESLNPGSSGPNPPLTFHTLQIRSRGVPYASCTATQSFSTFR

The target of another test is T1, KLHL37 (Flag-tagged) (UniProt O14682).
T1 sequence: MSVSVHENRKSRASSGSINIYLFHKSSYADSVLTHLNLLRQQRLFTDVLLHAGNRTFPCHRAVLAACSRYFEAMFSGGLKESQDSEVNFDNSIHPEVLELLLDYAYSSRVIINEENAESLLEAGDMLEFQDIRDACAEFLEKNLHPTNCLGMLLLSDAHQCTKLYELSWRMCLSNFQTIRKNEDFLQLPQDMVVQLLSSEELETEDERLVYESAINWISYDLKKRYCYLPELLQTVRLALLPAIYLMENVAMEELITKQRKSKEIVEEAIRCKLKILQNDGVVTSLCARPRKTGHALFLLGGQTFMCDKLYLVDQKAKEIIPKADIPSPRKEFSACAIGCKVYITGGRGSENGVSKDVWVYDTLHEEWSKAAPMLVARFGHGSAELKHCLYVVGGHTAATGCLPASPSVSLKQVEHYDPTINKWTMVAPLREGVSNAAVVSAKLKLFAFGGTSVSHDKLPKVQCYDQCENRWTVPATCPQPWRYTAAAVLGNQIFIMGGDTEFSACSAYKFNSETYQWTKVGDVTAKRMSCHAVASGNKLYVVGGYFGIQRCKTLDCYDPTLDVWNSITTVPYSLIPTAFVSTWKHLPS
The experiment in a line: co-IP; 293T cells transfected with HA-HDAC6 and Flag-tagged Cullin 3 family adaptor constructs, treated with 10 μM MG132 for 12 hours before harvesting; lysis in EBC buffer, washed with NETN buffer; immunoblot.

The next test has as its target T2, KLHL12 (Flag-tagged) (UniProt Q53G59).
T2 sequence: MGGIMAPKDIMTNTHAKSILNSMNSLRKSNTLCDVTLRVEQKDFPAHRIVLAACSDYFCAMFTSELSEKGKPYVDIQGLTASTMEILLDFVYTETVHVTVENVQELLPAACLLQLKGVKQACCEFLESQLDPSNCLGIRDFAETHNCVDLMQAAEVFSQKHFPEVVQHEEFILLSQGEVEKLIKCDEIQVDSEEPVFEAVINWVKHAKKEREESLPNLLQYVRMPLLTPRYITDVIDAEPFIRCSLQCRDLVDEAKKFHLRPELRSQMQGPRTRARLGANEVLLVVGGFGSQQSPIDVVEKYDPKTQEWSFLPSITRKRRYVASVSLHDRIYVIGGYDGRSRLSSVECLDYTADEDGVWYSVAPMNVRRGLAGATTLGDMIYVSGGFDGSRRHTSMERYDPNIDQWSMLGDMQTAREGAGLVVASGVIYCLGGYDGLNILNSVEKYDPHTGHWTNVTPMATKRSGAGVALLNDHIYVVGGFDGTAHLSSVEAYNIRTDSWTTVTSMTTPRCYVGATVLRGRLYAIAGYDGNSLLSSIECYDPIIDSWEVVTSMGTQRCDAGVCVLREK
The test is described as above.

A further test concerns the target T3, KLHL3 (Flag-tagged) (UniProt Q9UH77).
T3 sequence: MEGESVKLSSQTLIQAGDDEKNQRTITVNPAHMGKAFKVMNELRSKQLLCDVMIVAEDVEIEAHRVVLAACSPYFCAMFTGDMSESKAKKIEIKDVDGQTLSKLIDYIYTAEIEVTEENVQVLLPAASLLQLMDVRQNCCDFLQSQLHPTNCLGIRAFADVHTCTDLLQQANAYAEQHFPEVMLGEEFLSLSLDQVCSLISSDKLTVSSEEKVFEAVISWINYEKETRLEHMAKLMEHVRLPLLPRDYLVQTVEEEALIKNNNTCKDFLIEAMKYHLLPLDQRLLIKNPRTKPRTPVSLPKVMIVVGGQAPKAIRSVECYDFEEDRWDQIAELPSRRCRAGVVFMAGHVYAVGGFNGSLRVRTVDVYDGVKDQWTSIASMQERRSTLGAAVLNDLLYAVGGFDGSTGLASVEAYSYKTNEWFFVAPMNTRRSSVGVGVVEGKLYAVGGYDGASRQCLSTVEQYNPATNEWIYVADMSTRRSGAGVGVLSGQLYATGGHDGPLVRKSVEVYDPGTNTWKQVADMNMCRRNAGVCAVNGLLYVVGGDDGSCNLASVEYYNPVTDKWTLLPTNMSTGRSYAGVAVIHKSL
Described as above.

The next test addresses T4, KLHL2 (Flag-tagged) (UniProt O95198).
T4 sequence: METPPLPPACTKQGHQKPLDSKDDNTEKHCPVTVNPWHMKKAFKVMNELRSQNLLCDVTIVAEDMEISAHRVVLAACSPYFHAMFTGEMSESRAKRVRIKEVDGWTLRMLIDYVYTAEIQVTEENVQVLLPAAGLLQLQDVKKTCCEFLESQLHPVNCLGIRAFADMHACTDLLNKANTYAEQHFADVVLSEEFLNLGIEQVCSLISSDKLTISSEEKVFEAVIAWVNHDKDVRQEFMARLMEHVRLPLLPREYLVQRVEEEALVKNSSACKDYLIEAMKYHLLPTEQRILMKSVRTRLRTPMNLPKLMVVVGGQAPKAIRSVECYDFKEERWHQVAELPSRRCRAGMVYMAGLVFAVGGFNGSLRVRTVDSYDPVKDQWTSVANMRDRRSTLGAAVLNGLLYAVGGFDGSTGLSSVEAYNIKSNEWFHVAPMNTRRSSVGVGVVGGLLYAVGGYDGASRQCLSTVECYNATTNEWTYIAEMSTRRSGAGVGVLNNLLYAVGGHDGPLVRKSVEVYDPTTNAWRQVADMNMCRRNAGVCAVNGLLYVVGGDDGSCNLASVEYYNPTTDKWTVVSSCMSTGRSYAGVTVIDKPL
The description is as above.

The next test concerns the target T5, Flag-PLZF (UniProt Q05516).
T5 sequence: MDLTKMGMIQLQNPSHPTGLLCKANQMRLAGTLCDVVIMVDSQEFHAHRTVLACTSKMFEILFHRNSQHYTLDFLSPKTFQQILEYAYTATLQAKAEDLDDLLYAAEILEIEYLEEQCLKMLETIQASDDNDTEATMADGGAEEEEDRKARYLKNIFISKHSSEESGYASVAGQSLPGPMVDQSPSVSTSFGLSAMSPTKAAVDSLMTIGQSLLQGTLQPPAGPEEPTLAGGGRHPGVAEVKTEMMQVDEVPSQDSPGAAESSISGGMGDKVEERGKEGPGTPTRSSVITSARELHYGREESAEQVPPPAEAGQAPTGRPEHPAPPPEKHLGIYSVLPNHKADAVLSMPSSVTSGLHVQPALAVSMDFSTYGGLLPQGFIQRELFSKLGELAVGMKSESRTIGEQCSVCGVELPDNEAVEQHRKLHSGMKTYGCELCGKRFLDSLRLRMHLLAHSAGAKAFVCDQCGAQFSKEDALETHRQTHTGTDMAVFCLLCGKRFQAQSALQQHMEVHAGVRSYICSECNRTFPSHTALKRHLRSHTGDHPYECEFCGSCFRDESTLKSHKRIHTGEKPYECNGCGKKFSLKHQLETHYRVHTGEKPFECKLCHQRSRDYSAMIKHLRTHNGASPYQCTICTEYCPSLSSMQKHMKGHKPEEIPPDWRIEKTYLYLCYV
The description is as above.

Test [2] addresses Flag-SPOP WT (human) (UniProt O43791). The test is described as above.
For the next test, the target named is Flag-Keap1 (UniProt Q14145). The description is as above.
A further test has as its target SPOP F133V (human) (UniProt O43791). The experiment in a line: pull-down; GST pull-down products derived from 293T cells transfected with indicated constructs; which partner carried GST is not told; immunoblot.
For another test, the target named is SPOP Y87C (human) (UniProt O43791). The description is as above.
A further test deals with SPOP W131G (human) (UniProt O43791). Described as above.
Another test has as its target SPOP F102C (human) (UniProt O43791). Described as above.
Another test deals with SPOP F133L (human) (UniProt O43791). Described as above.
The target of test [3] is Flag-SPOP WT (human) (UniProt O43791). The test is described as above.
In a further test the target is Flag-HDAC6 (human) (UniProt Q9UBN7). The experiment in a line: co-IP; 293T cells transfected with Flag-HDAC6 and Myc-Cullins, treated with 10 μM MG132 before harvesting; lysis in EBC buffer (50 mM Tris pH 7.5, 120 mM NaCl, 0.5% NP40), antibody-conjugated beads 4 hours in the cold room, washed with NETN buffer; immunoblot.

Data on 8 substances can be found in article PMC5564613.

No constants are given. Whether binding was seen depends on the method and setting. Binding seen in cells or lysates may run through a third protein. Some binding calls cover weakened binding; strength is not graded here. For some of these results: Tags and fused reporters may be left off the sequences shown.

For the substance Flag-HDAC6 (from UniProt Q9UBN7 1-1215), the binding result in [1] is “binds”.

HA-HDAC6 (from UniProt Q9UBN7 1-1215): the binding entry in the test with KLHL37 (Flag-tagged) is “no binding”; with KLHL12 (Flag-tagged) it was “no binding”; with KLHL3 (Flag-tagged) it was “no binding”; with KLHL2 (Flag-tagged), “no binding”; in the test with Flag-PLZF, “no binding”; in the test with Flag-SPOP WT (human) [2], “binds”. Further, the binding entry with Flag-Keap1 was “no binding”.

As for “HDAC6 (GST pull-down of Figure 5C) (from UniProt Q9UBN7 1-1215)”, the binding entry is “no binding” with SPOP F133V (human); “no binding” in the test with SPOP Y87C (human); “no binding” with SPOP W131G (human); “no binding” with SPOP F102C (human); “no binding” with SPOP F133L (human); “binds” in the test with Flag-SPOP WT (human) [3].

As to “HDAC6 with deletion of degron 1 (ΔD1) (from UniProt Q9UBN7 1-1215)”, in test [1], the binding entry is given as “binds”.

Consider “Myc-Cullin 4A (from UniProt Q13619 1-759)”, for which, in the test with Flag-HDAC6 (human), the binding entry is recorded as “no binding”.

Take “Myc-Cullin 4B (from UniProt Q13620 1-913)”: the binding result with Flag-HDAC6 (human) is “no binding”.

On to “Myc-Cullin 5 (from UniProt Q93034 1-780)”, for which the binding result with Flag-HDAC6 (human) is “no binding”.

As to “Myc-Cullin 7 (from UniProt Q14999 1-1698)”, the binding entry with Flag-HDAC6 (human) is on record as “no binding”.
